Experimental data reported in article PMC5892938.
The list shows a part of the results. The exact form of the protein is not confirmed.

target: GST-SBP-ILF3 (Homo sapiens) (UniProt Q12906); test: targeted RNA Bind-n-Seq; settings: RBNS binding buffer: 25 mM Tris pH 7.5, 150 mM KCl, 3 mM MgCl2, 0.1% Tween, 0.5 mg/mL BSA, 1 mM DTT; 27 nM protein, 750 pM RNA pool; temperature not stated; high values mean tight binding; sequences stand for … in GGGUAAAAGCGAGGUGAA…CGGGACAAGUAUUAUGGG

Row | Sequence | binding signal (log2 fold change)
1 | UUUUUUUUUUGAGACGGAGGCCGUCUCCAG [tttttgagapaired] | 0.513
2 | UUUUUUUUUUGAGAGUGAUGCACUCUCCUG [tttttgagapaired] | 0.416
3 | UUUUUUUUUUGAGAGUGAUCCACUCUCCGG [tttttgagapaired] | 0.0329
4 | GUGUGUGGUGUUGGUUCCUAACACCGCAUA [gtspaired] | -0.491
5 | GGUGUGUGUGUUGGUAUCUAACACAUAUAC [gtspaired] | -0.631
6 | UUCUCUCUUCCUCCGUGGGAGGAGGGGAGA [ctspaired] | -0.471
7 | UUUUUUUUUUGAGAACGGAACGUUCUCCAG [tttttgagapaired] | -0.0938
8 | UUCUUCCUUCCUCCGCGGGAGGAGGGGAGA [ctspaired] | -0.592
9 | UUUUUUUUUUGAGAUGGAAGCCAUCUUCUA [tttttgagapaired] | -0.0872
10 | UUUUUUUUUUGAGAUGGGGACCAUCUCCUA [tttttgagapaired] | 0.219
11 | UUUUUUUUUUGAGAUGGCGUCCAUCUCCGG [tttttgagapaired] | 0.706
12 | GUGUGUUGUGUUGGCUUCUAACACAGCACG [gtspaired] | -0.827
13 | UUUUUUUUUUGAGAGGGUAACCCUCUUCUA [tttttgagapaired] | -0.048
14 | GUUGGUGGUGUUGGCGUCUAACACCGCCGA [gtspaired] | -0.417
15 | GGUGGUUGUGUUGGUACCUAACACAGCCGC [gtspaired] | -0.471
16 | GUGGUUGGUGUUGGAUCCUAACACCAGCCG [gtspaired] | -0.502
17 | GGUGGUUGUGUUGGAACCUAACACAGCUAC [gtspaired] | -0.855
18 | UUUUUUUUUUGAGACCGAGUCGGUUUCCUA [tttttgagapaired] | 0.62
19 | UUUUUUUUUUGAGAUCGGGUCGAUCUUCUG [tttttgagapaired] | 0.422
20 | GUUGUGUGUGUUGGUCCCUAACACACGCGA [gtspaired] | -0.469
21 | GUUGUGUGUGUUGGUUCCUAACACACGCGA [gtspaired] | -0.558
22 | UUUUUUUUUUGAGAACGUGACGUUCUCCAG [tttttgagapaired] | 0.31
23 | UUUUUUUUUUGAGAUGGCUGCCAUCUCCAG [tttttgagapaired] | 0.531
24 | UUUUUUUUUUGAGACGGUUUCUGUCUCCUA [tttttgagapaired] | 0.226
25 | GUGUGGUGUGUUGGCCCCUAACACACCAUA [gtspaired] | -0.146
26 | GUUGUGUGUGUUGGUGUCUAACACACGCAG [gtspaired] | -0.621

Row | Sequence | binding signal (log2 fold change)
27 | UUCUCCUCUCCUCCGCUGGAGGGGAGGGGA [ctspaired] | -0.616
28 | UUUUUUUUUUGAGACGGAGUCCGUUUCCUG [tttttgagapaired] | 0.653
29 | UUUUUUUUUUGAGAUCGGUCCGAUCUCCGG [tttttgagapaired] | 0.293
30 | UUUUUUUUUUGAGAGCGUGACGUUCUUCUG [tttttgagapaired] | 0.606
31 | GUGUGUGGUGUUGGUCUCUAACACCGCACG [gtspaired] | -0.741
32 | UUCCUCUCUCCUCCAAGGGAGGGGGGAGGA [ctspaired] | -0.0694
33 | GGUUGGUGUGUUGGUGUCUAACACAUCAGC [gtspaired] | -0.603
34 | UUUUUUUUUUGAGACGGUGGCCGUUUCCUA [tttttgagapaired] | 0.767
35 | UUUUUUUUUUGAGACGGUGUCUGUCUCCAG [tttttgagapaired] | 0.926
36 | UUCCUCUCUCCUCCUAGGGAGGGGGGAGGA [ctspaired] | -0.29
37 | UUUUUUUUUUGAGAGGGAUCCCCUCUUCUA [tttttgagapaired] | -0.0409
38 | GUGUGUUGUGUUGGAACCUAACACAACGCG [gtspaired] | -0.699
39 | UUUUUUUUUUGAGAGUGACCCACUCUCCAG [tttttgagapaired] | 0.867
40 | UUUUUUUUUUGAGAGCGAACCGCUCUUCUA [tttttgagapaired] | -0.252
41 | UUCCUUCUUCCUCCGCUGGAGGGAGAGGGA [ctspaired] | -0.44
42 | UUUUUUUUUUGAGACGGACUCCGUCUCCUA [tttttgagapaired] | 0.215
43 | GUGGUGUGUGUUGGCGUCUAACACAUACCG [gtspaired] | -0.663
44 | GGUGGUGGUGUUGGCUCCUAACACCGCCGC [gtspaired] | -0.84
45 | UUUUUUUUUUGAGAGGGGCUCCUUCUCCAG [tttttgagapaired] | 0.375
46 | UUUUUUUUUUGAGAGCGUGACGCUCUCCGG [tttttgagapaired] | 0.0991
47 | UUUUUUUUUUGAGAGCGGGGCGUUCUCCAG [tttttgagapaired] | 0.613
48 | UUUUUUUUUUGAGAUGGCUACCAUCUCCUA [tttttgagapaired] | 0.319
49 | UUUUUUUUUUGAGACCGAACCGGUCUUCUA [tttttgagapaired] | 0.326
50 | UUUUUUUUUUGAGACGGUAACCGUCUUCUG [tttttgagapaired] | 0.397
51 | UUUUUUUUUUGAGAGCGGUGCGUUCUCCUA [tttttgagapaired] | 0.285
52 | GUGUGUGGUGUUGGUGCCUAACACCGCACG [gtspaired] | -0.519

Row | Sequence | binding signal (log2 fold change)
53 | UUUUUUUUUUGAGAGUGAUACACUCUCCUG [tttttgagapaired] | 0.0839
54 | UUUUUUUUUUGAGAUGGUGGCUAUCUCCUA [tttttgagapaired] | 0.86
55 | GGUUGGUGUGUUGGAGUCUAACACAUCAAC [gtspaired] | -0.617
56 | UUUUUUUUUUGAGACCGUGUCGGUCUUCUG [tttttgagapaired] | 0.729
57 | GGUUGGUGUGUUGGCGCCUAACACAUCAGC [gtspaired] | -0.691
58 | GGUGUGUGUGUUGGCCUCUAACACACGCGC [gtspaired] | -0.92
59 | GUUGUGUGUGUUGGACCCUAACACACACAG [gtspaired] | -0.367
60 | UUUUUUUUUUGAGAGCGGAACGUUCUUCUA [tttttgagapaired] | 0.208
61 | UUUUUUUUUUGAGACGGUUGCCGUUUCCAG [tttttgagapaired] | 0.594
62 | UUUUUUUUUUGAGAGGGGCCCCCUCUUCUG [tttttgagapaired] | 0.949
63 | UUUUUUUUUUGAGACCGGGACGGUCUCCAG [tttttgagapaired] | 0.42
64 | GGUGUUGGUGUUGGAUUCUAACACCGAUAC [gtspaired] | -0.549
65 | GUGGUGUGUGUUGGCACCUAACACAUACCG [gtspaired] | -0.549
66 | UUUUUUUUUUGAGAGUGGCGCAUUCUCCAG [tttttgagapaired] | 0.581
67 | GUGGUUGGUGUUGGUAUCUAACACCGACCG [gtspaired] | -0.601
68 | UUUUUUUUUUGAGAGCGAUGCGCUCUCCUG [tttttgagapaired] | 0.226
69 | GUGGUUGGUGUUGGCGCCUAACACCAAUCA [gtspaired] | 0.00792
70 | UUUUUUUUUUGAGAUGGUAUCUAUCUCCAG [tttttgagapaired] | 0.047
71 | GUGUUGUGUGUUGGUACCUAACACACAGCG [gtspaired] | -0.587
72 | GGUGUUGGUGUUGGUCUCUAACACCAGCGC [gtspaired] | -0.385
73 | UUUUUUUUUUGAGAUCGAGUCGAUCUUCUA [tttttgagapaired] | -0.0664
74 | UUUUUUUUUUGAGAGCGGGUCGUUCUCCUA [tttttgagapaired] | 0.233
75 | UUUUUUUUUUGAGACGGCGACCGUUUCCUA [tttttgagapaired] | 0.639
76 | UUUUUUUUUUGAGAGCGUGGCGUUCUCCGG [tttttgagapaired] | 0.512
77 | UUCUUCUCUCCUCCUGGGGAGGGGGGAAGA [ctspaired] | -0.247
78 | UUUUUUUUUUGAGAUGGACACUAUCUCCGG [tttttgagapaired] | 0.406

Row | Sequence | binding signal (log2 fold change)
79 | UUUUUUUUUUGAGAUCGAGGCGAUCUUCUA [tttttgagapaired] | 0.181
80 | UUUUUUUUUUGAGAGGGCGUCCCUCUCCUA [tttttgagapaired] | 0.914
81 | UUUUUUUUUUGAGACUGCAACAGUCUCCAG [tttttgagapaired] | 0.427
82 | UUUUUUUUUUGAGACUGCUCCAGUCUCCAG [tttttgagapaired] | 0.881
83 | GUGGUGUGUGUUGGUAUCUAACACAUACCA [gtspaired] | -0.631
84 | UUUUUUUUUUGAGAGCGGAGCGUUCUCCUA [tttttgagapaired] | 0.783
85 | GUGUGGUGUGUUGGACUCUAACACACCGCG [gtspaired] | -0.487
86 | UUUUUUUUUUGAGAGGGCUGCCCUCUCCUG [tttttgagapaired] | 1.32
87 | UUUUUUUUUUGAGAUCGACGCGAUCUCCAG [tttttgagapaired] | 0.563
88 | GGUGUGUGUGUUGGCAUCUAACACAUAUAC [gtspaired] | -0.566
89 | UUUUUUUUUUGAGAGGGAAACCCUCUCCUG [tttttgagapaired] | -0.0843
90 | UUUUUUUUUUGAGACUGUAUCAGUCUCCGG [tttttgagapaired] | 0.219
91 | GUGGUUGGUGUUGGUCCCUAACACCGACUA [gtspaired] | -0.538
92 | UUUUUUUUUUGAGACCGUCACGGUCUUCUA [tttttgagapaired] | 0.397
93 | GUGUGUGGUGUUGGCAUCUAACACCGCACG [gtspaired] | -0.776
94 | UUCUCCUCUCCUCCUGGGGAGGGGGGGAGA [ctspaired] | -0.287
95 | UUUUUUUUUUGAGAUGGGGGCCAUCUUCUA [tttttgagapaired] | 0.605
96 | GUUGUGUGUGUUGGCACCUAACACACGCAA [gtspaired] | -0.451
97 | UUUUUUUUUUGAGACCGCGGCGGUCUCCGG [tttttgagapaired] | 0.879
98 | UUUUUUUUUUGAGACGGUUCCUGUCUCCUA [tttttgagapaired] | 0.567
99 | UUUUUUUUUUGAGAGGGUCUCCCUCUCCUA [tttttgagapaired] | 0.716
100 | UUUUUUUUUUGAGAGCGGGACGCUCUUCUG [tttttgagapaired] | 0.261
101 | UUUUUUUUUUGAGACUGGGUCAGUCUCCUG [tttttgagapaired] | 0.409
102 | GUUGGUGGUGUUGGCUCCUAACACCAUCAA [gtspaired] | -0.235
103 | GGUGGUUGUGUUGGACUCUAACACAGCCGC [gtspaired] | -0.395
